Experimental data from publication PMC9814530, “Rapid de novo discovery of peptidomimetic affinity reagents for human angiotensin converting enzyme 2” (Communications Chemistry, 2022).
Where a SMILES comes first, the peptide text is derived from it. [ ]: non-standard residue; d: D form. Phe(3,4-(OMe)2) = COc1ccc(C[C@H](N)C(=O)O)cc1OC; Phe(3,4-F2) = N[C@@H](Cc1ccc(F)c(F)c1)C(=O)O; Ala(4-thiazolyl) = N[C@@H](Cc1cscn1)C(=O)O; Phe(4-NH2) = Nc1ccc(C[C@H](N)C(=O)O)cc1; Met(O2) = CS(=O)(=O)CC[C@H](N)C(=O)O; Ala(cPr) = N[C@@H](CC1CC1)C(=O)O; Hyp = O=C(O)[C@@H]1C[C@@H](O)CN1; Cha = N[C@@H](CC1CCCCC1)C(=O)O; 4Amb = NCc1ccc(C(=O)O)cc1; β3hS = N[C@@H](CO)CC(=O)O; Orn = NCCC[C@H](N)C(=O)O; βAla = NCCC(=O)O

Target: ACE2 and SARS-CoV-2 RBD interaction (Homo sapiens, UniProt Q9BYF1)
Assay: BLI binding competition of the SARS-CoV-2 RBD-ACE2 interaction
Settings: ACE2 100 nM mixed with peptide at 5-fold or 50-fold excess (500 or 5000 nM)

CS(=O)(=O)CC[C@H](NC(=O)[C@H](Cc1ccc(F)c(F)c1)NC(=O)[C@H](CCCN)NC(=O)[C@@H](N)CC1CC1)C(=O)N1C[C@H](O)C[C@H]1C(=O)N[C@@H](Cc1cscn1)C(=O)N1CCC[C@@H]1C(=O)N[C@@H](CCC(N)=O)C(=O)N[C@@H](Cc1ccc(F)c(F)c1)C(=O)N[C@@H](CC1CCCCC1)C(=O)N[C@@H](CC1CCCCC1)C(=O)NCCC(=O)N[C@@H](CCCCN)C(N)=O [ABP N6] (H-[Ala(cPr)][Orn][Phe(3,4-F2)][Met(O2)][Hyp][Ala(4-thiazolyl)][dP]Q[Phe(3,4-F2)][Cha][Cha][βAla]K-NH2)
inhibition of binding of ACE2 to immobilized RBD: no direct inhibition

CS(=O)(=O)CC[C@H](NC(=O)[C@H](CC1CCCCC1)NC(=O)[C@H](Cc1cscn1)NC(=O)C[C@H](CO)NC(=O)[C@H](CCCN)NC(=O)[C@H](CCC(N)=O)NC(=O)[C@H](CCCN)NC(=O)[C@H](Cc1ccc(F)c(F)c1)NC(=O)[C@H](Cc1cscn1)NC(=O)[C@@H](N)CC1CC1)C(=O)NCC(=O)N[C@@H](Cc1ccc(N)cc1)C(=O)N[C@@H](CCCCN)C(N)=O [ABP N1] (H-[Ala(cPr)][Ala(4-thiazolyl)][Phe(3,4-F2)][Orn]Q[Orn][β3hS][Ala(4-thiazolyl)][Cha][Met(O2)]G[Phe(4-NH2)]K-NH2)
inhibition of binding of ACE2 to immobilized RBD: does not interfere

COc1ccc(C[C@H](NC(=O)[C@H](Cc2ccc(F)c(F)c2)NC(=O)[C@@H]2C[C@@H](O)CN2C(=O)[C@H]2CCCN2C(=O)[C@H]2CCCN2C(=O)CNC(=O)[C@H](CC2CC2)NC(=O)[C@H](Cc2cscn2)NC(=O)[C@@H](N)CC2CC2)C(=O)N[C@@H](Cc2cscn2)C(=O)NCCC(=O)NCc2ccc(C(=O)N[C@@H](CCCCN)C(N)=O)cc2)cc1OC [ABP N4] (H-[Ala(cPr)][Ala(4-thiazolyl)][Ala(cPr)]G[dP][dP][Hyp][Phe(3,4-F2)][Phe(3,4-(OMe)2)][Ala(4-thiazolyl)][βAla][4Amb]K-NH2)
inhibition of binding of ACE2 to immobilized RBD: no direct inhibition
